The values below come from ChEMBL document CHEMBL4311995, “Discovery and development of extreme selective inhibitors of the ITD and D835Y mutant FLT3 kinases” (Eur J Med Chem, 2019).

One data set in a line: in vitro. The conditions noted are these: PAMPA, pH 7.4. (The PAMPA barrier holds no transporters, so it reflects passive diffusion.)
For another data set, the system named is MV4-11. Briefly: cells. The conditions noted are these: Homo sapiens, MV4-11, 72 h. The class given is functional, cell-based.
The test system of a further data set is K562. Description: cells. The class given is functional, cell-based. The conditions noted are these: Homo sapiens, K562, 72 h.
Data set [1] in a line: physchem. The conditions noted are these: buffer, pH 2.
A short description of data set [2]: physchem. Conditions: buffer, pH 7.4.
In a further data set the test system is U-937. Briefly: cells. The class given is functional, cell-based. The conditions noted are these: Homo sapiens, U-937, 72 h.
A short description of another data set: cells. The class given is ADME, cell-based. Conditions: Homo sapiens, HS5, 72 h.
A short description of data set [3]: in vivo. Conditions: NMRI, mouse, po, 10 mg/kg.
Data set [4] is described as follows: in vivo. Conditions: NMRI, mouse, po, 10 mg/kg. This is another data set of the same source.

In brackets after ≈: the same amount, converted by molar mass.

Consider `CN(C)CCCNc1nc(/C=C/c2ccc(F)cc2)nc2ccc(Cl)cc12`, for which, in the data set “in vitro”, the Papp at 5 h came to 62.9 nm/s.

Take `CSc1ccc(/C=C/c2nc(NCCN(C)C)c3cc(Cl)ccc3n2)cc1`: the results for the IC50 with MV4-11, in the data set on K562 and with U-937 were 0.38 µM, 3 µM and 4.95 µM, respectively. Moreover, in “in vitro”, the Papp at 5 h turned out to be 34.9 nm/s. Moreover, the kinetic solubility at 24 h in “physchem [1]” came to 94 µM (≈ 37.5 µg/mL); in “physchem [2]”, 8 µM (≈ 3.19 µg/mL).

As to `CN(C)CCNc1nc(/C=C/c2ccc(S(C)(=O)=O)cc2)nc2ccccc12`, the IC50 in the data set on MV4-11 was 0.05 µM; in the data set with K562, 5.54 µM; in the data set with U-937, 11.3 µM; in the data set “cells”, 8.14 µM. For the same compound, in the data set “in vitro”, the Papp at 5 h turned out to be 14.2 nm/s. Besides, the kinetic solubility at 24 h in the data set “physchem [1]” amounted to 120 µM (≈ 47.6 µg/mL); in “physchem [2]”, 119 µM (≈ 47.2 µg/mL).

On to `CC(C)c1ccc(/C=C/c2nc(NCCN(C)C)c3ccccc3n2)cc1`, for which the values for the IC50 in the data set with MV4-11, with K562 and in the data set “cells” were 0.03 µM, 2.49 µM and 2.55 µM, respectively. Also, the Papp at 5 h in “in vitro” is 58.5 nm/s. Besides, the solubility (kinetic) at 24 h in the data set “physchem [2]” was determined as 108 µM (≈ 38.9 µg/mL). The Cmax at 8 h in the data set “in vivo [3]” is 0.0166 µg/mL. Besides, the Tmax at 8 h in “in vivo [4]” is 2 h.

One may read the Papp as a coefficient for how fast a substance crosses the barrier. Usually IC50 stands for the point on the concentration scale where inhibition reaches its midpoint. Higher therefore signals lower potency. By kinetic solubility is commonly meant the concentration staying in solution when a stock, usually in DMSO, is diluted into the medium. For orientation: Cmax means the maximum level reached in the sampled fluid or tissue. The Tmax is the time at which the peak concentration occurs.
